# Measurements published in the supplement of paper PMC8728848.
# This is one part of the list.
# B1: WGA (Triticum vulgare) (protein)
# chain: QRCGEQGSNMECPNNLCCSQYGYCGMGGDYCGKGCQNGACWTSKRCGSQAGGATCPNNHCCSQYGHCGFGAEYCGAGCQGGPCRADIKCGSQSGGKLCPNNLCCSQWGFCGLGSEFCGGGCQSGACSTDKPCGKDAGGRVCTNNYCCSKWGSCGIGPGYCGAGCQSGGCDAVFAGAITANSTLLAE
# What was measured:
# Experiment in all cases: glycan array binding signal (z-score within array); higher = stronger binding
# Conditions in all cases: glycan notation: IUPAC condensed, linker removed
# [1] = molecular target: Neu5Ac(a2-3)Gal(b1-4)[Fuc(a1-3)]GlcNAc(b1-3)GalNAc
# Procedure, shortened: (§1)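 Glycan array binding is given as a within-array Z-score, which can be read as non-binding when negative. The arrays, 3228 of them, came from the Consortium for Functional Glycomics database and were retained only where the protein sequence was available. Z-scores were averaged across arrays of the same protein sequence at different concentrations or buffers and across linkers.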
# [2] = molecular target: Neu5Ac(a2-3)Gal(b1-4)[Fuc(a1-3)]GlcNAc(b1-6)[Gal(b1-3)]GalNAc
# Procedure, shortened: as §1
# [3] = molecular target: Neu5Ac(a2-3)Gal(b1-4)[Fuc(a1-3)]GlcNAc(b1-6)[Neu5Ac(a2-3)Gal(b1-3)]GalNAc
# Procedure, shortened: as §1
# [4] = molecular target: Neu5Ac(a2-3)Gal(b1-4)[Fuc(a1-3)]GlcNAc6S
# Procedure, shortened: as §1
# [5] = molecular target: Neu5Ac(a2-3)Gal6S(b1-4)GlcNAc
# Procedure, shortened: as §1
# [6] = molecular target: Neu5Ac(a2-3)Gal6S(b1-4)[Fuc(a1-3)]GlcNAc
# Procedure, shortened: as §1
# Neu5Ac(a2-3)GalNAc = molecular target: Neu5Ac(a2-3)GalNAc
# Procedure, shortened: as §1
# [7] = molecular target: Neu5Ac(a2-3)GalNAc(b1-4)GlcNAc
# Procedure, shortened: as §1
# [8] = molecular target: Neu5Ac(a2-3)[GalNAc(b1-4)]Gal(b1-4)Glc
# Procedure, shortened: as §1
# [9] = molecular target: Neu5Ac(a2-3)[GalNAc(b1-4)]Gal(b1-4)GlcNAc
# Procedure, shortened: as §1
# [10] = molecular target: Neu5Ac(a2-3)[GalNAc(b1-4)]Gal(b1-4)GlcNAc(b1-3)GalNAc
# Procedure, shortened: as §1
# [11] = molecular target: Neu5Ac(a2-3)[Neu5Ac(a2-6)]GalNAc
# Procedure, shortened: as §1
# Neu5Ac(a2-6)Gal = molecular target: Neu5Ac(a2-6)Gal
# Procedure, shortened: as §1
# [12] = molecular target: Neu5Ac(a2-6)Gal(b1-3)GlcNAc(b1-3)[Gal(b1-4)GlcNAc(b1-6)]Gal(b1-4)Glc
# Procedure, shortened: as §1
# Neu5Ac(a2-6)Gal(b1-4)Glc = molecular target: Neu5Ac(a2-6)Gal(b1-4)Glc
# Procedure, shortened: as §1
# [13] = molecular target: Neu5Ac(a2-6)Gal(b1-4)GlcNAc
# Procedure, shortened: as §1
# [14] = molecular target: Neu5Ac(a2-6)Gal(b1-4)GlcNAc(b1-2)Man
# Procedure, shortened: as §1
# [15] = molecular target: Neu5Ac(a2-6)Gal(b1-4)GlcNAc(b1-2)Man(a1-3)Man(b1-4)GlcNAc(b1-4)GlcNAc
# Procedure, shortened: as §1
# [16] = molecular target: Neu5Ac(a2-6)Gal(b1-4)GlcNAc(b1-2)Man(a1-3)[Gal(b1-4)GlcNAc(b1-2)Man(a1-6)]Man(b1-4)GlcNAc(b1-4)GlcNAc
# Procedure, shortened: as §1
# [17] = molecular target: Neu5Ac(a2-6)Gal(b1-4)GlcNAc(b1-2)Man(a1-3)[GlcNAc(b1-2)Man(a1-6)]Man(b1-4)GlcNAc(b1-4)GlcNAc
# Procedure, shortened: as §1
# [18] = molecular target: Neu5Ac(a2-6)Gal(b1-4)GlcNAc(b1-2)Man(a1-3)[GlcNAc(b1-4)][Neu5Ac(a2-6)Gal(b1-4)GlcNAc(b1-2)Man(a1-6)]Man(b1-4)GlcNAc(b1-4)GlcNAc
# Procedure, shortened: as §1
# [19] = molecular target: Neu5Ac(a2-6)Gal(b1-4)GlcNAc(b1-2)Man(a1-3)[Man(a1-6)]Man(b1-4)GlcNAc(b1-4)GlcNAc
# Procedure, shortened: as §1
# [20] = molecular target: Neu5Ac(a2-6)Gal(b1-4)GlcNAc(b1-2)Man(a1-3)[Neu5Ac(a2-3)Gal(b1-4)GlcNAc(b1-2)Man(a1-6)]Man(b1-4)GlcNAc(b1-4)GlcNAc
# Procedure, shortened: as §1
# [21] = molecular target: Neu5Ac(a2-6)Gal(b1-4)GlcNAc(b1-2)Man(a1-3)[Neu5Ac(a2-6)Gal(b1-4)GlcNAc(b1-2)Man(a1-6)]Man(b1-4)GlcNAc(b1-4)GlcNAc
# Procedure, shortened: as §1
# [22] = molecular target: Neu5Ac(a2-6)Gal(b1-4)GlcNAc(b1-2)Man(a1-3)[Neu5Ac(a2-6)Gal(b1-4)GlcNAc(b1-2)Man(a1-6)]Man(b1-4)GlcNAc(b1-4)[Fuc(a1-6)]GlcNAc
# Procedure, shortened: as §1
# [23] = molecular target: Neu5Ac(a2-6)Gal(b1-4)GlcNAc(b1-2)Man(a1-6)Man(b1-4)GlcNAc(b1-4)GlcNAc
# Procedure, shortened: as §1
# [24] = molecular target: Neu5Ac(a2-6)Gal(b1-4)GlcNAc(b1-2)Man(a1-6)[Gal(b1-4)GlcNAc(b1-2)Man(a1-3)]Man(b1-4)GlcNAc(b1-4)GlcNAc
# Procedure, shortened: as §1
# [25] = molecular target: Neu5Ac(a2-6)Gal(b1-4)GlcNAc(b1-2)Man(a1-6)[GlcNAc(b1-2)Man(a1-3)]Man(b1-4)GlcNAc(b1-4)GlcNAc
# Procedure, shortened: as §1
# [26] = molecular target: Neu5Ac(a2-6)Gal(b1-4)GlcNAc(b1-2)Man(a1-6)[Man(a1-3)]Man(b1-4)GlcNAc(b1-4)GlcNAc
# Procedure, shortened: as §1
# [27] = molecular target: Neu5Ac(a2-6)Gal(b1-4)GlcNAc(b1-2)[Neu5Ac(a2-6)Gal(b1-4)GlcNAc(b1-4)]Man(a1-3)[GlcNAc(b1-4)][Neu5Ac(a2-6)Gal(b1-4)GlcNAc(b1-2)[Neu5Ac(a2-6)Gal(b1-4)GlcNAc(b1-6)]Man(a1-6)]Man(b1-4)GlcNAc(b1-4)GlcNAc
# Procedure, shortened: as §1
# [28] = molecular target: Neu5Ac(a2-6)Gal(b1-4)GlcNAc(b1-2)[Neu5Ac(a2-6)Gal(b1-4)GlcNAc(b1-4)]Man(a1-3)[GlcNAc(b1-4)][Neu5Ac(a2-6)Gal(b1-4)GlcNAc(b1-4)Man(a1-6)]Man(b1-4)GlcNAc(b1-4)GlcNAc
# Procedure, shortened: as §1
# [29] = molecular target: Neu5Ac(a2-6)Gal(b1-4)GlcNAc(b1-2)[Neu5Ac(a2-6)Gal(b1-4)GlcNAc(b1-6)]Man(a1-6)[Neu5Ac(a2-6)Gal(b1-4)GlcNAc(b1-2)Man(a1-3)][GlcNAc(b1-4)]Man(b1-4)GlcNAc(b1-4)GlcNAc
# Procedure, shortened: as §1
# [30] = molecular target: Neu5Ac(a2-6)Gal(b1-4)GlcNAc(b1-3)Gal(b1-3)GlcNAc
# Procedure, shortened: as §1
# [31] = molecular target: Neu5Ac(a2-6)Gal(b1-4)GlcNAc(b1-3)Gal(b1-4)GlcNAc
# Procedure, shortened: as §1
# [32] = molecular target: Neu5Ac(a2-6)Gal(b1-4)GlcNAc(b1-3)Gal(b1-4)GlcNAc(b1-2)Man(a1-3)[Neu5Ac(a2-6)Gal(b1-4)GlcNAc(b1-3)Gal(b1-4)GlcNAc(b1-2)Man(a1-6)]GalNAc
# Procedure, shortened: as §1
# [33] = molecular target: Neu5Ac(a2-6)Gal(b1-4)GlcNAc(b1-3)Gal(b1-4)GlcNAc(b1-3)Gal(b1-4)GlcNAc
# Procedure, shortened: as §1
# [34] = molecular target: Neu5Ac(a2-6)Gal(b1-4)GlcNAc(b1-3)Gal(b1-4)GlcNAc(b1-3)Gal(b1-4)GlcNAc(b1-2)Man(a1-3)[Neu5Ac(a2-6)Gal(b1-4)GlcNAc(b1-3)Gal(b1-4)GlcNAc(b1-3)Gal(b1-4)GlcNAc(b1-2)Man(a1-6)]GalNAc
# Procedure, shortened: as §1
# [35] = molecular target: Neu5Ac(a2-6)Gal(b1-4)GlcNAc(b1-3)Gal(b1-4)GlcNAc(b1-3)GalNAc
# Procedure, shortened: as §1
# [36] = molecular target: Neu5Ac(a2-6)Gal(b1-4)GlcNAc(b1-3)Gal(b1-4)GlcNAc(b1-3)[Neu5Ac(a2-6)Gal(b1-4)GlcNAc(b1-3)Gal(b1-4)GlcNAc(b1-6)]GalNAc
# Procedure, shortened: as §1
# [37] = molecular target: Neu5Ac(a2-6)Gal(b1-4)GlcNAc(b1-3)Gal(b1-4)GlcNAc(b1-6)[Gal(b1-3)]GalNAc
# Procedure, shortened: as §1
# [38] = molecular target: Neu5Ac(a2-6)Gal(b1-4)GlcNAc(b1-3)Gal(b1-4)[Fuc(a1-3)]GlcNAc(b1-3)Gal(b1-4)[Fuc(a1-3)]GlcNAc
# Procedure, shortened: as §1
# [39] = molecular target: Neu5Ac(a2-6)Gal(b1-4)GlcNAc(b1-3)GalNAc
# Procedure, shortened: as §1
binder,measurement,setting,value
B1,glycan array binding signal (z-score),[1],-0.268
same,glycan array binding signal (z-score),[2],-0.292
same,glycan array binding signal (z-score),[3],-0.275
same,glycan array binding signal (z-score),[4],-0.378
same,glycan array binding signal (z-score),[5],-0.339
same,glycan array binding signal (z-score),[6],-0.372
same,glycan array binding signal (z-score),Neu5Ac(a2-3)GalNAc,-0.398
same,glycan array binding signal (z-score),[7],-0.215
same,glycan array binding signal (z-score),[8],-0.373
same,glycan array binding signal (z-score),[9],-0.323
same,glycan array binding signal (z-score),[10],-0.103
same,glycan array binding signal (z-score),[11],-0.395
same,glycan array binding signal (z-score),Neu5Ac(a2-6)Gal,-0.352
same,glycan array binding signal (z-score),[12],-0.286
same,glycan array binding signal (z-score),Neu5Ac(a2-6)Gal(b1-4)Glc,-0.349
same,glycan array binding signal (z-score),[13],-0.369
same,glycan array binding signal (z-score),[14],-0.356
same,glycan array binding signal (z-score),[15],0.384
same,glycan array binding signal (z-score),[16],-0.132
same,glycan array binding signal (z-score),[17],-0.3
same,glycan array binding signal (z-score),[18],-0.059
same,glycan array binding signal (z-score),[19],-0.26
same,glycan array binding signal (z-score),[20],0.02
same,glycan array binding signal (z-score),[21],0.238
same,glycan array binding signal (z-score),[22],-0.329
same,glycan array binding signal (z-score),[23],-0.344
same,glycan array binding signal (z-score),[24],-0.227
same,glycan array binding signal (z-score),[25],-0.173
same,glycan array binding signal (z-score),[26],-0.305
same,glycan array binding signal (z-score),[27],-0.366
same,glycan array binding signal (z-score),[28],-0.388
same,glycan array binding signal (z-score),[29],-0.288
same,glycan array binding signal (z-score),[30],-0.375
same,glycan array binding signal (z-score),[31],-0.02
same,glycan array binding signal (z-score),[32],-0.017
same,glycan array binding signal (z-score),[33],-0.134
same,glycan array binding signal (z-score),[34],0.117
same,glycan array binding signal (z-score),[35],-0.431
same,glycan array binding signal (z-score),[36],0.175
same,glycan array binding signal (z-score),[37],-0.248
same,glycan array binding signal (z-score),[38],-0.359
same,glycan array binding signal (z-score),[39],-0.363
